In all, about 45,000 compounds went through this assay and about 200 (0.44%) were called active. About 7% were inconclusive and are not listed. Calls follow the shape of the dose curve; as a rule, active = well fitted activation curve with a large enough effect; inconclusive = small, poorly fitted or top-dose-only effect; inactive = no such curve, though single readings can be large or run the other way. The list shows a part of the results.
test: qHTS of TDP-43 Inhibitors: NCGC Sytravon Library Screen; conditions: yeast TDP-43 toxicity rescue, BacTiter-Glo growth, 24 h; series mostly up to 46.1 µM; growth rescue (activation): at the top concentration; also: 0% is about no effect; nearly all actives have a fitted effect of over 55% in size
Summary of the method: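 TDP-43-expressing yeast, pregrown in raffinose, seeded at OD600 0.02 in galactose medium with compound for 24 hr at 30 deg C. Growth read by BacTiter-Glo luminescence, so rescue of toxicity appears as activation.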

| Compound | growth rescue (activation) |
| --- | --- |
| CCOC(=O)CNc1nc2ccccc2n2c(C)nnc12 | inactive: -1.04% |
| CCOC(=O)C1CCN(C(=O)CNC(=O)Cn2c(C)cc3ccccc3c2=O)CC1 | inactive: -2.05% |
| CN(CC(=O)NCCc1ccc(S(N)(=O)=O)cc1)S(=O)(=O)c1ccc(Br)s1 | inactive: -1.66% |
| CSc1ccccc1NC(=O)CSc1nnc(CNC(=O)c2ccccc2F)n1C | inactive: 4.25% |
| Cc1ccc(NC(=O)c2ccc(OC(=O)COc3ccc(Cl)c(C)c3)cc2)cc1 | inactive: 10.3% |
| COc1ccc([N+](=O)[O-])cc1NC(=O)c1cccs1 | inactive: -8.68% |
| O=C(Cc1cccs1)Nc1cccc(-c2nnc(-c3ccco3)o2)c1 | inactive: -4.19% |
| CCOc1cc(N2CCOCC2)c(OCC)cc1NC(=O)COC(=O)c1ccc([N+](=O)[O-])o1 | inactive: -48.7% |
| COc1cc2c(cc1OC)C(c1ccccc1C(F)(F)F)CC(=O)N2 (configuration not stated) | inactive: -6.11% |
| CCOc1ccccc1N1CC(C(=O)Nc2c(C)n(C)n(-c3ccccc3)c2=O)CC1=O (configuration not stated) | inactive: -2.82% |
| CCOC(=O)c1c(C)[nH]c(C(=O)COC(=O)C2=NNC(=O)CC2)c1C | inactive: 1.09% |
| COc1cccc(C(=O)Nc2ccc(NC(=O)c3ccco3)cn2)c1 | inactive: 12.5% |
| O=C(CSc1ncn[nH]1)NN(c1ccccc1)c1ccccc1 | inactive: -0.165% |
| OC[C@H]1O[C@@H](c2nc(-c3nc(-c4ccc(F)cc4)no3)cs2)[C@H](O)[C@@H]1O | inactive: 4.73% |
| O=C(NC(=S)NCC1CCCO1)c1ccc(Cl)cc1Cl (configuration not stated) | inactive: -2.07% |
| CN(C)c1ccc(C(=O)N2CCCC(N3CCN(Cc4ccc5c(c4)OCO5)CC3)C2)cc1 (configuration not stated) | inactive: -2.47% |
| COc1ccccc1/C=C/C(=O)NCC(=O)N/N=C/c1ccc(C(=O)O)cc1 | inactive: -0.863% |
| COc1cccc(NC(=O)COC(=O)C2C3CC4OC(=O)C2C4C3)c1 (configuration not stated) | inactive: 6.44% |
| O=C(/C=C/c1ccco1)NCc1ccco1 | inactive: 9.74% |
| COCC(C)n1c(C)cc(C(=O)COc2ccc(N(C)S(=O)(=O)c3ccc(NC(C)=O)cc3)cc2)c1C (configuration not stated) | inactive: -5.32% |
| Cc1onc(C(=O)Nc2cccnc2Cl)c1[N+](=O)[O-] | inactive: 11% |
| O=C(CCN1CCOCC1)N/N=C/c1cc([N+](=O)[O-])ccc1OC(F)F | inactive: 14.5% |
| Cc1ccc(NC(=O)CSc2nc(N)cc(=O)[nH]2)cc1S(=O)(=O)N1CCCCCC1 | inactive: -5.76% |

| Compound | growth rescue (activation) |
| --- | --- |
| S=C1NC2(CCCCCC2)N=C1c1ccccc1 | inactive: 25% |
| O=C1CCCN1CC1CCN(Cc2nc(CC3CC3)no2)CC1 | inactive: 12.8% |
| Cn1c(=O)c2cc(S(=O)(=O)Nc3cccc(F)c3)ccc2n(C)c1=O | inactive: 25.3% |
| CCc1ccccc1Nc1nc(N)nc(COC(=O)CCC(=O)c2ccc(F)cc2)n1 | inactive: 13.5% |
| C=CCN1CC2CC3(COc4cc(C)cc(C)c4)C=CC2(O3)C1=O (configuration not stated) | inactive: 23.5% |
| CC(=O)Nc1cccc(NC(=O)C(F)(F)F)c1 | inactive: 0.538% |
| COc1cccc(NC(=O)C/C(C)=N/NC(=O)C2CCCCC2)c1 | inactive: -7.36% |
| O=C(Nc1cccc(C(F)(F)F)c1)c1csc([C@H]2C[C@H](O)[C@@H](CO)O2)n1 | inactive: -9.27% |
| COc1ccc(Nc2c3c(nc4c(-c5ccccc5)c(C)nn24)CCC3)cc1 | inactive: -1.98% |
| Cc1c(C(=O)NCC2CCCO2)cccc1[N+](=O)[O-] (configuration not stated) | inactive: 17% |
| O=C(C(Cc1ccc(Cl)cc1)NS(=O)(=O)c1ccccc1)N1CC[C@@]2(O)CCCC[C@H]2C1 (some centres not stated) | inactive: -0.149% |
| NS(=O)(=O)c1ccc(CCNC(=O)CN2CCN(Cc3cccc(C(F)(F)F)c3)CC2)cc1 | inactive: -3.12% |
| O=C(CCN1C(=O)C2C3C=CC(C3)C2C1=O)Nc1ccc2ncccc2c1 (configuration not stated) | inactive: 8.67% |
| O=C(O)c1ccc(NC(=O)C2(c3ccccc3)CCCC2)cc1 | inactive: 22% |
| CC(NC(=O)c1cccs1)c1nnc(SCc2ccc(Cl)cc2Cl)n1C (configuration not stated) | inactive: 12.1% |
| O=C(CN(CC1CCCO1)C(=O)CNS(=O)(=O)c1ccccc1)NCc1ccc(F)cc1 (configuration not stated) | inactive: 1.89% |
| COc1cccc(C2c3[nH]c4ccccc4c3CCN2Cc2ncc[nH]2)c1 (configuration not stated) | inactive: 20.1% |
| CN(C(=O)NC1CCCCC1)c1ccccc1 | inactive: 14.2% |
| CCOC(=O)CSc1nc2cc3c(cc2cc1C#N)OCCO3 | inactive: 1.79% |
| O=C(COc1ccccc1)Nc1ccc(S(=O)(=O)Nc2ncccn2)cc1 | inactive: -10.8% |
| COCCCNC(=O)c1csc([C@H]2C[C@H](O)[C@@H](CO)O2)n1 | inactive: 10.5% |
| CCOc1ccc(N2C(=O)CC(N(CCc3ccc(S(N)(=O)=O)cc3)C(C)=O)C2=O)cc1 (configuration not stated) | inactive: 2.18% |
| Cc1nc(NC(=O)c2ccc(Cl)cc2)nc2cc3c(cc12)OCO3 | inactive: 3.81% |

| Compound | growth rescue (activation) |
| --- | --- |
| O=C1Nc2ccccc2N=C(c2ccccc2)C1Br (configuration not stated) | inactive: 0.312% |
| Cc1ccc(CNC(=O)c2cc3sc(Cl)cc3n2C)cc1 | inactive: 19.1% |
| CCC(=O)c1ccc(N2CCN(S(=O)(=O)c3ccccc3)CC2)c(F)c1 | inactive: 1.36% |
| CCNc1nc(Cl)nc(N(NC(C)=O)C(C)C)n1 | inactive: -0.829% |
| CCOC(=O)c1c(C)[nH]c(=S)c(C#N)c1-c1ccccc1 | inactive: 30.1% |
| Cc1ccc(CNc2nc(C)cs2)cc1 | inactive: -21% |
| CCNS(=O)(=O)c1ccc(CCC(=O)Nc2ccc(C(=O)OC)cc2)cc1 | inactive: 4.61% |
| O=C(CSc1nc(-c2ccccc2)cc(=O)[nH]1)Nc1ccc(Br)cc1 | inactive: -19.5% |
| O=C(CNC(=O)c1ccc(Br)cc1)NCc1cccnc1 | inactive: 5.21% |
| C/C(=N/NC(=O)c1cccc(N2CCCC2=O)c1)c1ccncc1 | inactive: 10.7% |
| COc1ccc(NS(=O)(=O)c2cccc(C(=O)NCC(c3cccs3)N3CCOCC3)c2)cc1 (configuration not stated) | inactive: 13% |
| CCOC(=O)/C(=C/c1ccc(OC(F)F)cc1)C1=Nn2c(nnc2-c2ccc(Cl)cc2)SC1 | inactive: 14.4% |
| COc1c(C)cc(C(=O)C2CCCN(C(=O)c3ccc4[nH]ccc4c3)C2)cc1C (configuration not stated) | inactive: 8.55% |
| O=S(=O)(CC(CN1CCCCC1)N1CCCCC1)c1ccc2ccccc2c1 (configuration not stated) | inactive: 8.31% |
| CC(C)=C(NC(=O)c1ccccc1)C(=O)N/N=C(\C)c1ccccc1O | inactive: 12.4% |
| O=c1c2ccccc2cnn1Cc1nnc(-c2cccs2)o1 | inactive: -17% |
| Cc1ccc(S(=O)(=O)N2CCN(Cc3ccccc3)CC2)c(C)c1N(C)S(=O)(=O)c1ccccc1 | inactive: 7.61% |
| O=C1Nc2cc(C(=O)N3CCN(c4ccc(F)cc4)CC3)ccc2NC1CSCc1cccc(F)c1 (configuration not stated) | inactive: -21.2% |
| CCc1ccc(NS(=O)(=O)c2ccc3c(c2)CCN3C(=O)CCC(=O)O)cc1 | inactive: -6.11% |
| c1cc(-c2ccc3c(c2)CCO3)n2cnnc2c1 | inactive: 5.38% |
| COC(C(=O)Nc1ccc(S(=O)(=O)Nc2ccc(F)cc2)cc1)c1ccccc1 (configuration not stated) | inactive: -14.3% |

Source: PubChem BioAssay AID1347073 (National Center for Advancing Translational Sciences (NCATS), 2019)
